In PubChem BioAssay (NCATS):
The other results are listed elsewhere or left out. Further columns of the screen follow, without active or inactive calls. Compounds called inactive in the main read-out are mostly missing here. For some assays here: The note in brackets gives the kind of curve behind each potency; many fits are weak.

Columns and labels:
[1] = qHTS Assay for Lipid Storage Modulators (AID 1519); details: Drosophila S3 cells, BODIPY lipid droplet/cell ratio, laser cytometry, cells loaded with oleic acid
How it was run: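 Cells seeded at 5,000 per well were treated with compounds over a concentration series and loaded with oleic acid (400 uM, as added). Lipid droplet fluorescence (488 nm excitation, 500-530 nm channel) was read by laser-scanning cytometry and normalized to 20 uM Triacsin C.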

[2] = S16 Schwann cell PMP22 intronic element beta-lactamase assay (AID 624044); details: S16 rat Schwann cells, PMP22 element beta-lactamase FRET, 24 h; note: nearly all actives have a fitted effect of over 15% in size
How it was run: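 Beta-lactamase reporter under a PMP22 intronic regulatory element in stable S16 rat Schwann cells; 24 h compound exposure. 460 nm blue signal normalized between DMSO (0%) and potassium clavulanate, with 535 nm FRET tracking viability; curves classed by r2 and response.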

[3] = A High-Content qHTS Against Drug Library for the Identification of Small Molecules that Inhibit DYT1 Early Onset Primary Dystonia-Associated Cell Pathology (AID 1645839); details: HEK293 Flp-In EGFP-delE TorsinA, punctate imaging, 48 h; measured here: cell count cytotoxicity
How it was run: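 High-content imaging quantified EGFP-TorsinA mislocalization in HEK293-derived cells inducibly expressing DYT1 mutant torsinA, after 48 h exposure to compound given together with tetracycline induction. Cell count served as a toxicity channel alongside %pathology.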

[4] = qHTS for identification of novel therapeutic agents for treatment of microphthalmiaassociated transcription factor (MiT) renal cell carcinoma (RCC) (AID 1963991); details: CellTiter-Glo, 48 h; for z-score: stronger effect = lower value
How it was run: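 Curves over 11 concentrations were fitted to CellTiter-Glo luminescence, scaled between empty wells (0%) and DMSO (100%) viability. Cells were UOK109, UOK124 and UOK145 TFE3-fusion RCC lines at 500/well, exposed 48 hours at 37 C.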

[5] = qHTS Assay for Modulators of Human Peripheral Myelin Protein 22 (PMP22) Expression/Activity (AID 1967); details: Cell-based PMP22 reporter, dual-color luciferase ratio
How it was run: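 Readout is the corrected green/red luminescence ratio after 24 h compound exposure, normalised to untreated cells (0%). Engineered MSC80 mouse Schwann cells express green luciferase from the mouse Pmp22 promoter and red luciferase from EF-alpha as internal control.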

[6] = qHTS Validation Assay to Find Inhibitors of Chronic Active B-Cell Receptor Signaling (AID 485345); details: ABC-DLBCL cells, chronic BCR signaling reporter; measured here: CBG/CBR ratio read-out
How it was run: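 Read-out: ratio of filter-corrected green (IkappaBalpha fusion) to red (native) luciferase signal in doxycycline-induced TMD8 cells after 4 h at 37C. Titration spanned 46 uM–3 nM; Data were normalised to basal cells and 10 uM MG-132 wells.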

[7] = Nrf2 qHTS screen for inhibitors: Validation (AID 493153); details: A549 ARE-Fluc reporter, 18-24 h; AC50: CellTiter-Fluor fluorescence read, measured here: cytotoxicity CellTiter-Fluor AC50; viability change: measured here: cytotoxicity max response
How it was run: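 Concentration-response test in A549 ARE_Fluc reporter cells (5% FBS OPTI-MEM), compound exposure 18-24 h at 37°C, 5% CO2. Cell viability measured first by CellTiter-Fluor fluorescence; ARE-driven luciferase luminescence then measured as Nrf2 activity.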

[8] = qHTS assay for small molecule antagonists of peroxisome proliferator-activated receptor delta signaling (AID 588535); details: HEK293T PPARd-UAS-bla, beta-lactamase FRET ratio, 18 h; 460 nm channel;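 note: cells co-treated with a PPAR-delta agonist as stimulator during compound exposure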
How it was run: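 Antagonist-mode qHTS using GeneBLAzer PPAR-delta-UAS-bla HEK293T cells; compound exposure 18 hrs at 37 C over a titration. Ratiometric CCF4 fluorescence at 460/530 nm; concentration-response points fitted to the Hill equation.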

[9] = qHTS assay for small molecule antagonists of peroxisome proliferator-activated receptor gamma signaling (AID 588537); details: HEK293 PPARg-UAS-bla, beta-lactamase ratio, antagonist mode; measured here: W460 blue channel
How it was run: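 Cell-based beta-lactamase assay; GW9662 served as the antagonist control. Stimulation used rosiglitazone, final 50 nM, 16 h, 37 C.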

[10] = qHTS assay for small molecule antagonists of vitamin D receptor signaling (AID 588541); details: HEK293T VDR-UAS-bla, beta-lactamase ratio, antagonist mode; measured here: W460 blue channel (cell viability)
[11] = qHTS assay for small molecule agonists of retinoid X receptor alpha signaling (AID 588544); details: HEK293T RXRa-UAS-bla, beta-lactamase reporter, 18 h; 530 nm emission
[12] = qHTS assay for small molecule antagonists of retinoid X receptor alpha signaling (AID 588546); details: HEK293T RXRa-UAS-bla, beta-lactamase ratio, antagonist mode; measured here: W530 green channel, cytotoxicity proxy;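 note: cells stimulated with 9-cis-retinoic acid as agonist; % is set by controls: 0 for no effect and ±100 for the full control effect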
How it was run: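 Beta-lactamase reporter inhibition, read as CCF4 fluorescence ratio (ex 405, em 460/530 nm) after 2 h at RT. HEK293T UAS-bla cells, 2500/well, were stimulated with 9-cis-RA at 500 or 100 nM final alongside test compound for 18 h at 37 C.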

[13] = qHTS Assay for Inhibitors of PDE-IV (AID 607); details: HEK293 ACTOne CNG channel cells, membrane potential fluorescence; measured here: parental cell counter-screen;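 note: parental cells stimulated with forskolin 10 µM plus RO 20-1724 100 µM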
How it was run: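 Cell-based read-out of cAMP via a modified cyclic nucleotide-gated channel and membrane potential dye (535/590 nm) in HEK293 cells expressing PDE4 endogenously. Compounds tested up to 22.9 uM final; 100 uM RO 20-1724 reference.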

[14] = measured here: cell count channel max response
[15] = measured here: lipid (BODIPY) channel AC50
[16] = measured here: lipid channel max response
[17] = measured here: 460 nm blue channel
[18] = TFE3-RCC UOK109 viability, measured here: UOK109 Z-AUC
[19] = TFE3-RCC viability, measured here: UOK124 Z-AUC
[20] = TFE3-RCC viability, measured here: UOK145 Z-AUC
[21] = measured here: red reporter channel AC50, EF-alpha promoter control reporter in MSC80 mouse Schwann cells
Tags give direction and shape of the fitted curve.

CCCCCCC[N+](CC)(CC)CCCCc1ccc(Cl)cc1
max response [1, 14]: -15.2% | AC50 [1, 15]: 20 µM [falling, single point] | max response [1, 16]: -43.6% | AC50 [2, 17]: 5.35 µM [falling, full curve, poor fit]

Cc1cccc(CN2CCN(C(c3ccccc3)c3ccc(Cl)cc3)CC2)c1 (centres undefined)
max response [1, 14]: -15.6% | max response [1, 16]: -80.1% | AC50 [3]: 22.4 µM [falling, single point] | z-score [4, 18]: 0.747 | z-score [4, 19]: 0.338 | AC50 ([4]; TFE3-RCC viability, measured here: UOK124 cell viability): 26.4 µM [falling, partial curve, poor fit] | z-score [4, 20]: -0.0667

CC1=C(/C=C/C(C)=C/C=C/C(C)=C/C(=O)Nc2ccc(O)cc2)C(C)(C)CCC1
max response [1, 14]: 47.1% | max response [1, 16]: 46.9% | AC50 ([5]; measured here: green reporter channel AC50, mouse Pmp22 promoter in mouse Schwann cells): 95.3 µM [falling, single point] | AC50 [5, 21]: 84.9 µM [falling, single point] | AC50 [6]: 13 µM [falling, partial curve] | AC50 [7]: 16.4 µM [falling, partial curve] | viability change [7]: -30.3% | max response [8]: -76.7% | AC50 [9]: 1.26 µM [falling, full curve, poor fit] | AC50 [10]: 31.6 µM [falling, partial curve, poor fit] | max response [11]: -68.4% | max response [12]: -58.1% | AC50 [2, 17]: 14.1 µM [falling, partial curve] | AC50 ([2]; measured here: 530 nm viability channel): 10 µM [rising, full curve] | AC50 [3]: 1.58 µM [falling, full curve, poor fit]

Cc1c(Nc2ncccc2C(=O)O)cccc1C(F)(F)F
max response [1, 14]: 25.7% | AC50 [1, 15]: 31.6 µM [rising, partial curve, poor fit] | max response [1, 16]: 48.3% | AC50 [2, 17]: 10.7 µM [falling, single point]

OCC1O[C@H](Oc2ccc(O)cc2)C(O)C(O)C1O (some centres undefined)
max response [1, 14]: 10.2% | AC50 [1, 15]: 3.55 µM [rising, partial curve, poor fit] | max response [1, 16]: 25.3% | AC50 [2, 17]: 25.1 µM [falling, single point]

C(=C\c1ccccc1)/CN1CCN(C(c2ccccc2)c2ccccc2)CC1
max response [1, 14]: -44.2% | max response [1, 16]: -43.6% | AC50 [3]: 35.5 µM [falling, single point]

O=C(O)CCC(=O)c1ccc(-c2ccccc2)cc1
AC50 [13]: 2 µM [rising, partial curve, poor fit] | max response [1, 14]: 33.1% | AC50 ([1]; measured here: cell number channel AC50): 12.6 µM [rising, partial curve, poor fit] | max response [1, 16]: 55.2%

CC[C@@]1(O)CC2CN(CCc3c([nH]c4ccccc34)[C@](C(=O)OC)(c3cc4c(cc3OC)N(C)C3[C@@](O)(C(=O)OC)C(OC(C)=O)[C@]5(CC)C=CCN6CC[C@@]43C65)C2)C1 (some centres undefined)
max response [1, 14]: 23.2% | AC50 [1, 15]: 39.8 µM [rising, single point] | max response [1, 16]: 35.2% | AC50 [2, 17]: 0.562 µM [falling, full curve]

O=C(O)c1cc(O)c2c(c1)[C@H]([C@H]1c3cc(C(=O)O)cc(O)c3C(=O)c3c(O[C@@H]4OC(CO)C(O)C(O)C4O)cccc31)c1cccc(O[C@@H]3OC(CO)C(O)C(O)C3O)c1C2=O (some centres undefined)
max response [1, 14]: 16.6% | AC50 [1, 15]: 39.8 µM [rising, single point] | max response [1, 16]: 34.3% | AC50 [2, 17]: 5.62 µM [falling, full curve, poor fit]

O=C1C(=O)N(Cc2ccc(Cl)c(Cl)c2)c2ccccc21
AC50 [13]: 25.1 µM [rising, single point] | max response [1, 14]: 13.9% | AC50 [1, 15]: 3.98 µM [rising, single point] | max response [1, 16]: 4.36%

NCCS
max response [1, 14]: 24.8% | AC50 [1, 15]: 39.8 µM [rising, single point] | max response [1, 16]: 31.8% | AC50 [2, 17]: 0.0199 µM [falling, full curve, poor fit]

NC(Cc1ccc(Cl)cc1)C(=O)O (centres undefined)
max response [1, 14]: 53% | max response [1, 16]: 57.2% | AC50 [5, 21]: 33.8 µM [falling, partial curve]

CCCCN1CCC(n2c(=O)[nH]c3ccccc32)CC1
max response [1, 14]: 47.1% | max response [1, 16]: 45.7% | AC50 [5, 21]: 95.3 µM [falling, single point]

CC(=O)Oc1ccccc1C(=O)O
max response [1, 14]: 44.3% | max response [1, 16]: 46.8% | max response [11]: -13.5% | max response [12]: -4.87% | z-score [4, 18]: 0.817 | z-score [4, 19]: 0.546 | z-score [4, 20]: 0.187 | AC50 ([4]; TFE3-RCC viability, measured here: UOK145 cell viability): 29.6 µM [falling, single point]

CNC(=O)[C@H]1O[C@@H](n2cnc3c(NCc4ccc(N)cc4)ncnc32)[C@H](O)[C@H]1O
max response [1, 14]: 34.4% | max response [1, 16]: 35.1% | AC50 [5, 21]: 95.3 µM [falling, single point]
